The campaign covered roughly 310,000 compounds. About 2,200 (0.71%) showed an effect of 50% or more. Effects have a minus sign here. The list shows a part of the results.
What follows are compounds tested against human ether-à-go-go-related gene (hERG) potassium channel (human, UniProt Q12809) (assay: primary screen, population patch clamp on CHO cells stably expressing hERG).
human ether-à-go-go-related gene (hERG) potassium channel, sequence (Q12809 whole entry, looked up): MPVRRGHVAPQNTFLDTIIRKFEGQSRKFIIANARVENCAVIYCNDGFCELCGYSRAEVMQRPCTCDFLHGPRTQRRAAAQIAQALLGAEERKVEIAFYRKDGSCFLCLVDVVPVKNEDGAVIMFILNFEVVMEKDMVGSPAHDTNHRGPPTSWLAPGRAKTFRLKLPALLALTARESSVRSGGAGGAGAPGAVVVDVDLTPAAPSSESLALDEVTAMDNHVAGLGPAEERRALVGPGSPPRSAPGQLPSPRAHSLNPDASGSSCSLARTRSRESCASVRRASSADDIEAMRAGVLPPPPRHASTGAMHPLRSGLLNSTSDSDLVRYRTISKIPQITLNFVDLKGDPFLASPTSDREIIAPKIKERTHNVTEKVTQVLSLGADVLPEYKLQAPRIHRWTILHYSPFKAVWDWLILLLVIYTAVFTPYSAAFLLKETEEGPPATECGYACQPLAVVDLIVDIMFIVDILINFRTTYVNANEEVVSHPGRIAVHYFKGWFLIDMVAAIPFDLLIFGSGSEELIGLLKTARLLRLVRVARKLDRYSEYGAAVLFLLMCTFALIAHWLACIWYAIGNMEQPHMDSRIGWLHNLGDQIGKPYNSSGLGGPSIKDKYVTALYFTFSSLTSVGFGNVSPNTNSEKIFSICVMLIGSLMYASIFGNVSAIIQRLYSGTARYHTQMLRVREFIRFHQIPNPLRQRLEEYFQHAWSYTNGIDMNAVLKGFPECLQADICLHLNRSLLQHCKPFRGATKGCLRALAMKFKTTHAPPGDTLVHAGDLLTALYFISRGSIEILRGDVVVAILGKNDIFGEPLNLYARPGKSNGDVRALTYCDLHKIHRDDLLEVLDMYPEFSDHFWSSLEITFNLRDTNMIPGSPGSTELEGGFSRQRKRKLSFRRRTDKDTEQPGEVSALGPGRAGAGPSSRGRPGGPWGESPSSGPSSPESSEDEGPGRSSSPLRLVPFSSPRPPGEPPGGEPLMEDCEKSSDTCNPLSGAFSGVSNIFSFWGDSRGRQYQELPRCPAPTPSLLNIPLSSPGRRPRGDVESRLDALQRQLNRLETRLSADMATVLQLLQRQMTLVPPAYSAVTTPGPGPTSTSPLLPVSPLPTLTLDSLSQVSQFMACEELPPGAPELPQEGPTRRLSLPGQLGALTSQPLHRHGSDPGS

SMILES | hERG current change (%, negative = inhibition) at 1uM
O=C(CC1C(=O)NCCN1Cc1ccccc1C(F)(F)F)NC1CCCCCC1 (stereo not drawn) | 16.1%
CCCC(C)C(=O)Nc1ccc(S(=O)(=O)Nc2nccs2)cc1 (stereo not drawn) | 14.9%
C/C(=N\NC(=O)CSCc1ccccc1Cl)c1cc(O)ccc1O | 5.96%
CCN(CC(=O)Nc1ccccc1OC)C(=O)c1ccccc1Sc1ccccc1C#N | 11.3%
COc1ccc(S(=O)(=O)Nc2cc3c4c(c2)CCC(=O)N4CCC3)cc1C | 5.07%
COc1ccc(NS(=O)(=O)c2cc3c(cc2C)N(C)CCO3)cc1 | 5.55%
O=c1cc(C(F)(F)F)[nH]c2ccc(OC(F)(F)F)cc12 | 7.38%
CCC(=O)c1ccc(OCC(=O)OCC(=O)NCC2CCCCC2)cc1 | 8.21%
Nc1nn2c(C(F)(F)F)cc(=O)[nH]c2c1N=Nc1cccc(F)c1 | 14.2%
CCC(C(=O)NC1CCCC1)N(C(=O)Cn1nnc(-c2ccc(C)o2)n1)c1ccc(OC)c(OC)c1 (stereo not drawn) | 7.35%
O=C(CSc1ncccc1C(=O)O)NC1CCCCC1 | 29.3%
O=C(COC(=O)CNC(=O)C12CC3CC(CC(C3)C1)C2)Nc1ccccc1 | -7.19%
COC(=O)c1sccc1NC(=O)Cc1ccc(OC)c(OC)c1 | 15.9%
O=C(Nc1ccc(Cl)cc1)Nc1cccc2nsnc12 | 4.32%
CN(C)c1ncnc2c1NC1=C(S2)C(=NCCCC(=O)O)CC(C)(C)C1 | 0.211%
COc1ccc(NC(=O)c2ccccc2-c2ccccc2)cc1 | 10.9%
Cc1cccc(C(=O)Nc2ccc(S(=O)(=O)N3CCOCC3)cc2C)c1 | 17.6%
Cn1c(=O)c(Oc2ccc(Cl)cc2)c(O)c2ccccc21 | 23.6%
Cc1cccc(OCC(=O)O/N=C(\N)Cc2ccc(Cl)cc2)c1 | 5.63%

SMILES | hERG current change (%, negative = inhibition) at 1uM
CCOc1ccc(N(CC(=O)NCc2ccc(F)cc2)C(=O)CCC(=O)Nc2nccs2)cc1 | 15.6%
CCNC(=S)NNC(=O)c1cc(-c2cc(C)ccc2C)nc2ccccc12 | 17.5%
CC1=NN(C(N)=S)C(=O)C1N=Nc1ccccc1O (stereo not drawn) | 19.7%
O=C(CSc1nnc(Cc2ccccc2)n1-c1cccc(Cl)c1)NNC(=O)Cc1ccccc1 | 15%
COc1ccc(C(CNC(=O)c2cccc3cccnc23)N(C)C)cc1 (stereo not drawn) | 7.3%
CCn1nc(NC(=O)COC)c2cc3cc(C)ccc3nc21 | 9.09%
Cc1ccc(Cl)cc1N1CCN(S(=O)(=O)c2cn(C)cn2)CC1 | 9.22%
COCCN(C(=O)c1ccc(OC2CCN(S(=O)(=O)N(C)C)CC2)cc1)C(C)C | 11.1%
CCN(CC)c1cc(-c2ccccc2)ncn1.Cl | 7.81%
CC(C)(CO)NC(=O)C12CC3CC(CC(Br)(C3)C1)C2 | 15.3%
Cc1cccc(-c2nc(CS(=O)CC(=O)N3CCN(C)CC3)c(C)o2)c1 (stereo not drawn) | 23.2%
CCOC(=O)c1cc(NC(=O)Nc2ccccc2Cl)c(C)nc1C | 14.3%
Cc1sc2nc(SCCO)n(-c3ccccc3)c(=O)c2c1C | 15.6%
Cc1cc(C)n2nc(CC(=O)NNC(=O)COc3cccc(C)c3C)nc2n1 | 18.7%
COc1ccc(/C=C(\NC(=O)c2ccc(Cl)cc2)C(=O)NCCCN2CCOCC2)cc1OC | 9.09%
N#CC1C(=O)NC(N2CCN(c3ccccc3)CC2)=NC12CCCCC2 (stereo not drawn) | -1.07%
CCN1CCN(c2cc(C)c3cc(NC(=S)N4CCOCC4)ccc3n2)CC1 | 0.159%
CCOc1ccc(S(N)(=O)=O)cc1-c1nc2c(C(C)(C)C)nn(C)c2c(=O)[nH]1 | 12%
Cc1ccc(S(=O)(=O)/N=C(/c2ccccc2)N(C)C)c(C)c1 | 20.4%

SMILES | hERG current change (%, negative = inhibition) at 1uM
CN1CCN(C(=O)c2cccn(Cc3c(Cl)cccc3Cl)c2=O)CC1 | 12.1%
COc1cc(C=O)ccc1OCCSc1ccc(C)cc1 | -3.34%
Cc1c(Br)ccc(NC(=O)Cn2nc(-c3cccs3)ccc2=O)c1C | 25.7%
CCC(C(=O)Nc1ccccc1OC)n1c(C(=O)OC)cc2ccsc21 (stereo not drawn) | -4.62%
CCCCCC(=O)N(CN1C(=O)CCC1=O)c1ccccc1 | 13.9%
CC1=C(C(=O)OC(C)C)C(c2cccc(F)c2)n2ncnc2N1 (stereo not drawn) | 0.103%
S=C(NCc1ccccc1)NCC1COc2ccccc2O1 (stereo not drawn) | 10.3%
COC(=O)C1=C(C)N(c2ccc(Cl)c(Cl)c2)C(=O)C1 | 2.22%
CN(CCc1ccccn1)Cc1ccc(Cl)c(Cl)c1 | -0.903%
CC(=O)c1cccc(NC(=S)NC(=O)c2ccccc2Cl)c1 | 2.07%
CCCCc1ccc(NC(=O)Nc2cccnc2)cc1 | 7.22%
O=C(NCC1CCCO1)C(c1ccc(F)cc1)N(C(=O)Cn1nnc(-c2ccc(F)cc2)n1)c1cccc(O)c1 (stereo not drawn) | 9.23%
CCC(c1c(C)[nH]oc1=O)c1c(C)[nH]oc1=O | 11.8%
CN(C)c1ccc(C=NCC2(O)CCOC(C)(C)C2)cc1 (stereo not drawn) | 8.68%
Oc1ccc(Cl)cc1C1=Nc2ccccc2N=C(c2ccco2)C1 | 3.46%
O=C(Nc1ccc(F)cc1)c1cccnc1N1CCCCC1 | 0.314%
CCN(CC)CCCN1C(=O)C2C(C(=O)Nc3ccc(C(C)C)cc3)C3C=CC2(O3)C1C(=O)NC1CCCCC1 (stereo not drawn) | 17.4%
O=C(Nc1cc(C(F)(F)F)ccc1Cl)C(NCc1ccccc1)c1ccccc1 (stereo not drawn) | 15.6%
COc1ccc(NC(=O)c2ccc(C)cc2Cl)c([N+](=O)[O-])c1 | 23.1%

Source: publication PMC4336329 (PLoS ONE, 2015)
